This is an account of results in article PMC6212790.

This is one part of the list. At the low end of the ranking the order means little.

For the test, the target named is T1, GST-Rok (full length) (UniProt O34857).
T1 sequence: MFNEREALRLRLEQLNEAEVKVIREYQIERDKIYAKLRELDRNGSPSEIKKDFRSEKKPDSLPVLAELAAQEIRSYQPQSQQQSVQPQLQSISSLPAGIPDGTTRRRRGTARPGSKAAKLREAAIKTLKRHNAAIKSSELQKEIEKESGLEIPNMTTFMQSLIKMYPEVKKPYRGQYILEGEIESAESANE
The test is described as follows: protein binding microarray.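 Also: rank score from −0.5 (least bound) to 0.5 (best bound).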 The settings on record: Rok is a gene silencer of Bacillus subtilis; high values mean tight binding; most listed sequences are background and not binding sites; double strand, one strand shown.
Consider CGCTCCTA, for which the binding signal is -0.000475 E-score.
For ACTCGAGA the value was -0.0236 E-score; for AGGGGGTC, -0.413 E-score.
For the sequence AAAACGCT, the binding signal was 0.0282 E-score.
The value for AGTACGGA was 0.214 E-score.
In turn, ACTGGGTA displayed a binding signal of 0.0458 E-score.
For GGATTTTA, the binding signal stood at 0.274 E-score.
ACGCGTGG displayed a binding signal of 0.0091 E-score.
Sequence CCACGATC registered a binding signal of -0.171 E-score.
Turning to ACCCTGGA, the binding signal was -0.086 E-score.
For the sequence CCTACGTC, the binding signal was -0.128 E-score.
CTCGCAAG came in with a binding signal of -0.133 E-score.
For ATCTCTGG the value was 0.0407 E-score.
For the sequence CCTCCTGA, the binding signal is -0.346 E-score.
For AACCAGGT the value was -0.244 E-score.
The value for GCCCACGA was -0.303 E-score; that for AGATACAC was 0.212 E-score.
The sequence GCAAGCCC showed a binding signal of -0.251 E-score.
For GCCCACTA the value was 0.00538 E-score; for AAGTCATC, -0.00303 E-score.
On to GGTTTTCA, for which the binding signal turned out to be 0.0208 E-score.
For the sequence AGCTAACG, the binding signal came out at 0.0558 E-score.
Turning to AGGTAAAA, the binding signal was found to be 0.256 E-score.
CGCAGTGC yielded a binding signal of -0.0225 E-score.
Consider GGAGAACA, for which the binding signal was -0.231 E-score.
AATCCCCG registered a binding signal of -0.17 E-score.
The sequence ACCCTGAA had a binding signal of -0.182 E-score.
Take CCTAGTGA: the binding signal is -0.0373 E-score.
AGCCTGCG had a binding signal of -0.0872 E-score.
In turn, CCCGGATA displayed a binding signal of -0.244 E-score.
Regarding CGCACCAG, the binding signal is -0.0807 E-score.
As for AACTTCTA, the binding signal was found to be 0.296 E-score.
As for ACCGCCGA, the binding signal was -0.213 E-score.
On to GTCCCACA, for which the binding signal worked out at 0.00138 E-score.
AGCCCCCA registered a binding signal of -0.304 E-score.
As for CGCATTAA, the binding signal was determined as 0.0651 E-score.
CATCTCTC: the binding signal was -0.108 E-score.
ATATCAGA had a binding signal of 0.221 E-score.
In the case of CGATGACC, the binding signal was -0.152 E-score.
For the sequence CTCACAAA, the binding signal was -0.0424 E-score.
On to CATTGTGG, for which the binding signal was -0.133 E-score.
The value for ATTGGCGG was -0.201 E-score.
For ACAACGAG the value was 0.021 E-score; for ATAAGTCG, 0.0929 E-score.
For AGTGAAAG the value was 0.109 E-score; for GGATTCTA, 0.262 E-score; for CTAGCTAA, 0.133 E-score.
In turn, GGGTGGTA came in with a binding signal of -0.00701 E-score.
The sequence CCTGTAAA registered a binding signal of -0.0295 E-score.
TCAGTGGA: the binding signal was -0.0186 E-score.
AGGTCGGA gave a binding signal of -0.261 E-score.
In turn, TAAGGCCA came in with a binding signal of -0.0495 E-score.
Sequence GGTACCAC came in with a binding signal of 0.116 E-score.
With ATCCGAAG, the binding signal is 0.0408 E-score.
As for CTGGCCCA, the binding signal was -0.303 E-score.
With ACTCATGC, the binding signal is -0.0119 E-score.
TAGACTAA displayed a binding signal of 0.075 E-score.
Sequence GCGATTTA registered a binding signal of 0.315 E-score.
As for CCATAGCA, the binding signal was -0.0553 E-score.
Take AATACGTC: the binding signal worked out at 0.232 E-score.
TATTCCGA gave a binding signal of 0.154 E-score.
AGAAAGGA yielded a binding signal of -0.125 E-score.
Sequence GACTCACC gave a binding signal of -0.225 E-score.
As to GGTTCGCA, the binding signal is -0.114 E-score.
For ATCGCATC the value was -0.00537 E-score.
Regarding ATAATGCA, the binding signal turned out to be 0.308 E-score.
Sequence AATCTCAC displayed a binding signal of 0.0961 E-score.
The value for CGACACTA was 0.0897 E-score; that for CGATGCGA was -0.109 E-score; that for ACCAGAGT was 0.0694 E-score.
Consider ACGCTGGG, for which the binding signal is -0.178 E-score.
ACCAATCC: the binding signal was found to be 0.0382 E-score.
For GCATTGGC the value was -0.313 E-score.
For CGCTTTCC the value was -0.16 E-score; for GACAAGGA, -0.0446 E-score; for CCTTTTGC, -0.0538 E-score.
AATGACCC gave a binding signal of -0.157 E-score.
For the sequence AGAAGGAC, the binding signal is -0.175 E-score.
AGCATTGC: the binding signal came to 0.0757 E-score.
Consider ACTATCGC, for which the binding signal was 0.233 E-score.
The value for CGCAACAA was 0.0445 E-score.
ACTGATAT displayed a binding signal of 0.242 E-score.
As to AGTCCTAA, the binding signal is 0.02 E-score.
In turn, GTCACTTA showed a binding signal of -0.119 E-score.
CAAAATAC showed a binding signal of 0.351 E-score.
For AGACCGTC, the binding signal was -0.193 E-score.
As for CTCAGCTA, the binding signal is 0.224 E-score.
CTGTGAGC displayed a binding signal of -0.185 E-score.
As to GAATAACC, the binding signal amounted to 0.17 E-score.
With CCTCGAAG, the binding signal was -0.0738 E-score.
CTGGGTGC gave a binding signal of -0.153 E-score.
For CATGCAAA the value was -0.0437 E-score; for GGTGTGCA, -0.122 E-score.
ACGATTCA displayed a binding signal of -0.00504 E-score.
GCTTTCCA gave a binding signal of -0.126 E-score.
Take CACAGTCA: the binding signal was -0.0223 E-score.
The sequence TACCTTGA returned a binding signal of 0.0553 E-score.
As for CACTAGCC, the binding signal was -0.172 E-score.
AGGGCCCT gave a binding signal of -0.447 E-score.
GCTTGTAA had a binding signal of 0.144 E-score.
Sequence ATATAAGA registered a binding signal of 0.211 E-score.
For the sequence ACACCGAA, the binding signal is -0.00594 E-score.
AATCAGCC yielded a binding signal of -0.124 E-score.
Turning to AGGATAGC, the binding signal is -0.0214 E-score.
The value for AACGATCT was -0.0279 E-score.
Consider AGGGGTGA, for which the binding signal was -0.368 E-score.
AACCTTAG had a binding signal of -0.0335 E-score.
CAATTCTC had a binding signal of 0.233 E-score.
For the sequence AGAGTAAC, the binding signal was -0.112 E-score.
In turn, CTCAGGCA came in with a binding signal of -0.175 E-score.
For ACTGTGCT the value was -0.0894 E-score; for TAACCGGA, -0.108 E-score.
Regarding ATTAAAAG, the binding signal stood at 0.172 E-score.
CTTAGGTC returned a binding signal of 0.00712 E-score.
As to ACTAGTAC, the binding signal is 0.41 E-score.
TCTAAAGA showed a binding signal of -0.07 E-score.
With ATGGCAGC, the binding signal is -0.061 E-score.
For the sequence CACTCTCA, the binding signal was -0.109 E-score.
On to GGCGACGA, for which the binding signal is -0.317 E-score.
For GAGAGGAC the value was -0.308 E-score; for ATCCCTTG, -0.125 E-score; for AGGCTCTC, -0.282 E-score.
The sequence CTTTTGAA yielded a binding signal of -0.0531 E-score.
In turn, CATAGGAC returned a binding signal of 0.161 E-score.
Turning to CAGGCCCA, the binding signal was -0.343 E-score.
For CCCCCGCC, the binding signal is -0.404 E-score.
For AGGTATTC the value was -0.0919 E-score; for CACGGATC, 0.0143 E-score; for TATTACAA, 0.236 E-score.
For ATTGTCGC the value was 0.0939 E-score; for GCAGGAGC, -0.3 E-score; for AGGTATTG, 0.155 E-score.
Take CTCTTGGC: the binding signal was -0.0458 E-score.
Sequence AATGTGGG showed a binding signal of -0.0708 E-score.
For the sequence GGTTATAA, the binding signal came to 0.146 E-score.
The value for GGTAGCCA was -0.0127 E-score; that for ATCCACCA was -0.0266 E-score.
Regarding CAGGAATG, the binding signal is -0.136 E-score.
As to CCCTCAGC, the binding signal was -0.383 E-score.
Turning to ACGTCGCG, the binding signal was determined as 0.0874 E-score.
The sequence AAACCCCG gave a binding signal of -0.432 E-score.
For CCAGGACG the value was -0.199 E-score; for AGAAAGTA, 0.335 E-score; for ATGCCAAT, 0.0103 E-score.
The value for ACGACCCC was -0.335 E-score; that for CCTCTCCG was -0.263 E-score.
For the sequence AACTGAGC, the binding signal is 0.0683 E-score.
The value for AAAATTGT was 0.234 E-score.
AGCCGCGG showed a binding signal of -0.162 E-score.
CGCTTTAC had a binding signal of -0.19 E-score.
For TACAGGTA the value was 0.183 E-score; for AATAACGA, 0.237 E-score.
Consider AATGTAGG, for which the binding signal worked out at 0.174 E-score.
For ACCGCTCA the value was -0.00169 E-score.
CTCGTGTA gave a binding signal of -0.0219 E-score.
CACATCCA: the binding signal came to 0.0558 E-score.
On to AATCAGGT, for which the binding signal worked out at 0.204 E-score.
As for AAGGTACG, the binding signal was -0.206 E-score.
In the case of CCGTTAAA, the binding signal is 0.147 E-score.
For ATTTCCAA the value was 0.219 E-score; for AAACGTAC, 0.153 E-score; for CATCAAGA, -0.132 E-score.
In turn, CTTTAAAC had a binding signal of 0.0313 E-score.
Turning to ATGATATG, the binding signal turned out to be 0.172 E-score.
In turn, CGCAATAC showed a binding signal of 0.0487 E-score.
Sequence GAGGGCGC yielded a binding signal of -0.326 E-score.
CTACAGTA showed a binding signal of 0.27 E-score.
As to ATCACGTC, the binding signal is -0.00873 E-score.
In turn, ACCGACAT displayed a binding signal of -0.187 E-score.
GCTAACTA had a binding signal of 0.341 E-score.
Sequence ACATTGCA had a binding signal of 0.0856 E-score.
On to AGATTCCC, for which the binding signal was -0.058 E-score.
